Consider 56 variants from the RNAGym collection of RNA variant scans (doi:10.7554/elife.90254).

The chains are these.
B1: LINE1-mini (parent)
chain: GGCAGAGCUCAACACAGCGUGGCAAAGUGGCUGUGGCUAGACUGCC

The source gives no read counts; variants with many changes may rest on few reads.

Variants of B1 are the subject of the data set. Briefly: self-cleavage, relative activity (ratio to wild type); higher = more cleavage; in vitro, sequencing; the parent is a self-cleaving ribozyme.
On to GGCAGAGCUAAACAAAGCGUGGCAAAGUGGCUGUGGCUAGACUGCU [C10A C15A C46U], for which the self-cleavage turned out to be 0.02. Then GGCAGAGCUAAACACAGCGUGGGGAAGUGGCUGUGGCUAGACUGCA [C10A C23G A24G C46A], with 0.11.

For GGCAGAGCUAAACAGAGAGUGGCAAAGUGGGUGUGCCUAGACUGCC [C10A C15G C18A C31G G36C], the self-cleavage is 0.01. Then GGCAGAGCUAAACAGAGCGUUGCAAAAUGGCUCUGGCUAGACUGCC [C10A C15G G21U G27A G33C], with 0.01; and GGCAGAGCUAAACACAGCGUGGUAAAGUGGCUGUGUCUAGACUGCU [C10A C23U G36U C46U], with 0.01; and GGCAGAGCUAAACAAAGCGUGGCAAAGUGGCUGUGGCUACACAGCC [C10A C15A G40C U43A], with 0. On to GGCAGAGCUAAACACAGAGUGGCAAAGUGGCUGUGGCGUGACUGCC [C10A C18A U38G A39U], for which the self-cleavage was found to be 0.13. Next, GGCAGAGCUAAAUACAGCGUGACAAAGUGGCCGUUGCUAGACUGCC [C10A C13U G22A U32C G35U]: 0.03; GGCAGAGCUAAACACAGAGUGGCAAAGUGUCUGUGACUAGACUGCA [C10A C18A G30U G36A C46A]: 0.01. Next, GGCAGAGCUAAACACACCGUGGCAAAGUGGUCGUGGCCAGACUGCC [C10A G17C C31U U32C U38C]: 0.02. Regarding GGCAGAGCUAAACACAGCGUGGCAAAGUGGCUGUGGAUAGAAUGCC [C10A C37A C42A], the self-cleavage stood at 0.01. Then GGCAGAGCUAAACAGAGCGUGGCAAAGUGGCUGUGGCUAGAAUGCC [C10A C15G C42A], with 0.03; and GGCAGAGCUAAACACAUCGUGGAAAAGUGGCUGUGGGUAGACUGCC [C10A G17U C23A C37G], with 0.

Turning to GGCAGAGCUAAACACAGGGUGGCAAAGUGGAUGUGGCAAGACUGCC [C10A C18G C31A U38A], the self-cleavage came out at 0.01. Next, GGCAGAGCUAAACACAGCGUGGCAAAGUGGUUGUGGCUAGCCUGGC [C10A C31U A41C C45G]: 0.02. Next, GGCAGAGCUAAACAAUGCGUGGCAAAGUGGCUGUGGCUAGACCGCC [C10A C15A A16U U43C]: 0.06; GGCAGAGCUAAACAGAGCGUGGCAAAGUGGCUGUCGCUAGACUGCC [C10A C15G G35C]: 0.01; GGCAGAGCUAAACACACCGUGGCAAAGUGGCUGUGGCCAGACUGCC [C10A G17C U38C]: 0.1. Then GGCAGAGCUAAACACAGCGUGGGAAAUUGGCUGUGGCUAAAAUGCC [C10A C23G G27U G40A C42A], with 0.01; and GGCAGAGCUAAACAUAGCGUGGCAAAGUGGCUGUGGCUAGGCUGGC [C10A C15U A41G C45G], with 0.

For the variant GGCAGAGCUAAACACAGGGUGGCAAAGUGUCUGUGGCUAGACUGCC [C10A C18G G30U], the self-cleavage came out at 0.17. For GGCAGAGCUAAACACAGAAUGGCAAAUUGGCUGUGGCUAGAUUGCC [C10A C18A G19A G27U C42U], the self-cleavage was found to be 0.02.

For the variant GGCAGAGCUAAACACAGCGUGGCAAAGUGGGUUUGGCUAAACUGGC [C10A C31G G33U G40A C45G], the self-cleavage was 0.02. For the variant GGCAGAGCUAAACACAGAGUGGCAAAGUUGCUGUGGCUAGACUGCC [C10A C18A G29U], the self-cleavage was found to be 0.03. Turning to GGCAGAGCUAAACACAGUGUGGCAAUGUGGCUGUGGCUAGACUGCC [C10A C18U A26U], the self-cleavage was found to be 0.06. Next, GGCAGAGCUAAACACAGCGUGGAAAAGUGGCUGUAGCUAGACUGCC [C10A C23A G35A]: 0.01.

On to GGCAGAGCUAAACAAAGCAUGGCAAAGAGGCUGUCGCUAGACUGCC [C10A C15A G19A U28A G35C], for which the self-cleavage came to 0.01. Next, GGCAGAGCUAAACACAGCGUGGUAAAGCGUCUGUGGCUAGACUCCC [C10A C23U U28C G30U G44C]: 0.02; GGCAGAGCUAAACACAGCGUGGGAAAGUGGCUGUGGAUAGACAGCC [C10A C23G C37A U43A]: 0. For the variant GGCAGAGCUAAACACAACGUGGCUACGUGGCUGUGGCUAGACUGCC [C10A G17A A24U A26C], the self-cleavage amounted to 0.03.

For the variant GGCAGAGCUAAACACAACGUGGCAAAGUGGCUGAGGCUAGCCUGCC [C10A G17A U34A A41C], the self-cleavage is 0.04.

With GGCAGAGCUAAACAAAGCGUGGCAAAGUGGCUGUGGCUAGACUCCU [C10A C15A G44C C46U], the self-cleavage was found to be 0.03.

Regarding GGCAGAGCUAAACACAGCGUGGCAAAGUGGCUGUGGUUAGAGUGCC [C10A C37U C42G], the self-cleavage came to 0.02. On to GGCAGAGCUAAACACAGCGUGGUAAAGUGGGUGUGGCUAGACCGCC [C10A C23U C31G U43C], for which the self-cleavage was 0.01. Regarding GGCAGAGCUAAACAAAGCGGGGCCAAGUGGCUGUGGCUAGACUGCC [C10A C15A U20G A24C], the self-cleavage worked out at 0.05.

With GGCAGAGCUAAACAGAGCGUGGCAAAGUGGCUGUGGCUAGCCUGCC [C10A C15G A41C], the self-cleavage came to 0.

For GGCAGAGCUAAACACAGAGUGGCAUAGUUGAUGUGGCUAGACUGCC [C10A C18A A25U G29U C31A], the self-cleavage is 0.1.

As to GGCAGAGCUAAACAUAGCGUGGCAAAGUGACUGAAGCUAGACUGCA [C10A C15U G30A U34A G35A C46A], the self-cleavage is 0.05. With GGCAGAGCUAAACACAGGGUGGUAAAGUGGCUGUGGCUAGACUGCC [C10A C18G C23U], the self-cleavage turned out to be 0.03. GGCAGAGCUAAACACAACGUGGCAAAGUGGCUGUGGCUAGACUGCU [C10A G17A C46U]: the self-cleavage stood at 0.05. Next, GGCAGAGCUAAACACAUCGUGGCAAAUUGGCUGAGGGUAGACUGCC [C10A G17U G27U U34A C37G]: 0.02; GGCAGAGCUAAACACAGCGUGGCAAAGUGGUUGUGGUUAGACUGCC [C10A C31U C37U]: 0.01.

Regarding GGCAGAGCUAAACACAGCGUGGAAAAGUGGCUGUGGCUAAACUGCC [C10A C23A G40A], the self-cleavage was found to be 0.08. Then GGCAGAGCUAAACACAACGUGGCAAAUUGGCUGUGGCUAGACUGCC [C10A G17A G27U], with 0.06; and GGCAGAGCUAAACACAGUGUGGCAAAGUGGCUGAGGCUAAACGGCC [C10A C18U U34A G40A U43G], with 0.01. Next, GGCAGAGCUAAACACAGGGUGGCAAUGUGGGUGUGGCUAGACUGCC [C10A C18G A26U C31G]: 0.01.

GGCAGAGCUAAACACAACGUGGCAAAAUGGCUGUGGCUAGCCUGCC [C10A G17A G27A A41C]: the self-cleavage amounted to 0.01. Next, GGCAGAGCUAAACACAGCGUGGUAGAGUGGCUGUGGCUAGACUGCC [C10A C23U A25G]: 0.03. As for GGCAGAGCUAAACACAUCGUGGCAAAGUGACUGUGGCUAGACUGCC [C10A G17U G30A], the self-cleavage was 0.05. Then GGCAGAGCUAAACACAGUGUGGCAAAGUGGCUGUGGCUAGACUGUA [C10A C18U C45U C46A], with 0.01; and GGCAGAGCUAAACAUACCGUGGCAAAGUGGCUGUGGCUAGACUGCC [C10A C15U G17C], with 0.04; and GGCAGAGCUAAACACAGCGUGGGAAACUGGCAGUGGCAAGACUGCC [C10A C23G G27C U32A U38A], with 0.03. For the variant GGCAGAGCUAAAUACAGCGUGGCAAAGUGGCGGUGGCUAGACUGCC [C10A C13U U32G], the self-cleavage was found to be 0.03. Regarding GGCAGAGCUAAACAGAGCGUGGCAAAGUGGCGGUGUCUAGACUGCC [C10A C15G U32G G36U], the self-cleavage was 0.01. In the case of GGCAGAGCUAAACACAACGUGGCAAAGUGGUUGUGGCUAGACUGCC [C10A G17A C31U], the self-cleavage stood at 0.04. Turning to GGCAGAGCUAAACACAGCGUGGCAAAGUGGCUGUGGUCAGACUGCC [C10A C37U U38C], the self-cleavage is 0.02.
